The values that follow come from PMC12136788.

This is one part of the list.

T1: UNK ZnF1-6 (called full-length) (human, UniProt Q9C0B0 30-357)
T1 sequence: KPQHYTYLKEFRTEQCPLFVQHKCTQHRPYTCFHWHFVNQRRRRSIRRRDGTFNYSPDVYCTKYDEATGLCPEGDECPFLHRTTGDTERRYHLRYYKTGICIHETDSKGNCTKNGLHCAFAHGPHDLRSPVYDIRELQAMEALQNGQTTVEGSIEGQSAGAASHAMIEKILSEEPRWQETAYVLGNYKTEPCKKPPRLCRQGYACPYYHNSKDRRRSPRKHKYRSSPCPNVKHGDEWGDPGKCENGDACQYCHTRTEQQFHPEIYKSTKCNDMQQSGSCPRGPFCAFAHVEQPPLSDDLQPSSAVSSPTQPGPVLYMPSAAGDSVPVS

B1: chr16:2708819:2708933:+|3pUTR|ENSG00000167977|unk|total|mutant (ssRNA)
RNA: GGGAGUUCUACAGUCCGACGAUCCUCUCUGGGGAGCUGCUGGCCGCUCCGCGUUGUUUGAUUUUUGACCUUGACACCGCCGACCGGCUUGUGGUUUUUUUAAUUUAAAGAUAUUAAGACUUAAUUCACUAAAAUUUAUUCUAACAACAGAGGAUUGAGCAUCA
B2: chr11:74254050:74254151:+|3pUTR|ENSG00000214517|unk|FALSE|unique (ssRNA)
RNA: GGGAGUUCUACAGUCCGACGAUCUUGGAAGACCCAGAGAGGCCAAGAUCCCAUCCUUAGCCAUAGCGAGCGGUGGUGGUGGAUAGCAUCACAAGAAACGAGCCUGAAAAUCAGGUCCAGCCGGUCCAAGCACAUGGCCUCCCACAACAGAGGAUUGAGCAUCA
B3: chr11:4681751:4682711:-|CDS|ENSG00000167332|control|control|control (ssRNA)
RNA: GGGAGUUCUACAGUCCGACGAUCUUAUCCACAUCCACCAUGCCUAAGAUCCUUGCCCUUUUCUGGUUUGAUUCCCGAGAGAUUAGCUUUGAGGCCUGUCUUACCCAGAUGUUCUUUAUUCAUGCCCUCUCAGCCAUUGAAUCCCAACAGAGGAUUGAGCAUCA
B4: chr14:75134619:75134720:-|3pUTR|ENSG00000170348|msi1|total|mutant (ssRNA)
RNA: GGGAGUUCUACAGUCCGACGAUCAACAAGUCAAUGAGGGACUUCUUUUUAAUUUGGCCGGAUUUUGACUGGUUUUGCAACAACCGGUCUAUUAUCCGAGUCACCUAUGACAAAAAACCGGGGUUACCCCGAUAAUGCCAAAGUCAACAGAGGAUUGAGCAUCA
B5: chr17:47844907:47847298:-|three_prime_utr|ENSG00000189120|control|control|control (ssRNA)
RNA: GGGAGUUCUACAGUCCGACGAUCAAGGUGCGUAUUUAUUCAGGGAGGAGGAAAAGUGGUGCAGGGACAGGGAGAUGGGGCGCUAGGGGUUCUUAGUCUCUGGGGCUACUAGGCAGGAUGAAUUUGACUGGGUCGGUAGGAGCUCAACAGAGGAUUGAGCAUCA
B6: chr1:235977234:235977335:-|3pUTR|ENSG00000116962|msi1|FALSE|unique (ssRNA)
RNA: GGGAGUUCUACAGUCCGACGAUCGUCUAAGACCCCCAUUAUAAUAUUCAUGCGCUGCUUUUUCAUCAAAACCUACCCUGUCCUAGAGAUCUAUGGGCAUUUGGUGGAUGAUAAUGAGCAGCCCCUCCCAGAUAGAAUGUCAAUCAACAGAGGAUUGAGCAUCA
B7: chr1:236581285:236581397:-|CDS|ENSG00000119285|unk|total|mutant (ssRNA)
RNA: GGGAGUUCUACAGUCCGACGAUCCAUCCCGAAGAUGUUUUUCAGUUAUUCAAGUUCUGUUCUGUUUUAUGGACCUAUGGUUCCCGCCUUUCAAAUCCACUAAACUGCAGUGUGAAAACAGUGCUGCAGACUCAAGCUCUUUAUCAACAGAGGAUUGAGCAUCA
B8: chr2:206311781:206311882:+|3pUTR|ENSG00000204186|unk|FALSE|unique (ssRNA)
RNA: GGGAGUUCUACAGUCCGACGAUCUAGUGUUUAGAGUCCUUUCAUUUUAAGAUUCAGAAACAGCCUUUGUCCAACAUUUUCUGUAGAAGAACUUCAUCUUAAUUUAUGUCACAAAAUAAUUUAGCACCGUAUAUAGAAUUUUGUCAACAGAGGAUUGAGCAUCA
B9: ENSG00000107863:be:win_4601|CDS|ENSG00000107863|bound_else_gene|NA|bound_elsewhere_windowed (ssRNA)
RNA: GGGAGUUCUACAGUCCGACGAUCAGAAGUCCUCCCACCUUGAAGAGACAGGCUCUGACUCUGGCACUUUGCUCAGCACGUCUUCCCAGGCCUCCCUGGCAAGGUUUUCCAUGAAGAAAUCAACCAGUCCAGAAACGAAACAUACAACAGAGGAUUGAGCAUCA
B10: chr12:2849045:2849230:-|three_prime_utr|ENSG00000283297|control|control|control (ssRNA)
RNA: GGGAGUUCUACAGUCCGACGAUCCCCAGAGCCCCAGGCUCCAGUGUUCUCAAUCAAUGCUCCUUCAGCAAGAGGCCCUGGGGUAGCAAAAGGACUCUGGCUUCUGCAGAACAGCCUCUCCACCAUCCUCCCAGCCUCAAGCCACAACAGAGGAUUGAGCAUCA
B11: chr12:64147824:64147925:+|3pUTR|ENSG00000196935|unk|FALSE|unique (ssRNA)
RNA: GGGAGUUCUACAGUCCGACGAUCCAUCUCUGUGGUGUCUUUGUUCCUUUCCUUUCAUUCAUCACUACUUUCUCCUUGACAGCUAGCUUGCAUUAAAUAAUGUGAAACUUUUACCUUUAAAAUAUUUUUUUAUCUCACUUUCAUCAACAGAGGAUUGAGCAUCA
B12: chr5:72207927:72208036:+|3pUTR|ENSG00000131711|msi1_unk|total|mutant (ssRNA)
RNA: GGGAGUUCUACAGUCCGACGAUCUUUUUUUUUUUUUUUUUUUGCUAUGGGAUUUAAUGGGAAAAAUAUGUAAAAACUGUCACCCGUCAGCUGGCUCUUUUUCCUAUGAAAUCUAUCAGUACCUUUCUCCAUCCGUUGUUCUCACAACAGAGGAUUGAGCAUCA
B13: chr2:42328916:42329027:+|CDS|ENSG00000143924|unk|total|mutant (ssRNA)
RNA: GGGAGUUCUACAGUCCGACGAUCAGAAGGAUCUGAUGGGACAGAUAUCAAUGCACUGGUGCGAUCCCACAACCGAAAGGUGACCGCUGUUGCCGAUGACUUUUGUAAAGUCCAUCUGUUUCAGUAUCCCUGCUCCAAAGCAAACAACAGAGGAUUGAGCAUCA
B14: chr2:45005181:45006169:-|three_prime_utr|ENSG00000170577|control|control|control (ssRNA)
RNA: GGGAGUUCUACAGUCCGACGAUCCAGGGGCGCCCCGCCCCUGCGGCCCCACCAGGUACUGAAAGACCCGCAGGCUGAGCGGGUAGAACAGCCGGGUAGGGCAGAUAGCUGUCUAUGUUGGUUCUUGUUUGGGAUUUAUUUUCACAACAGAGGAUUGAGCAUCA

This experiment deals with T1, UNK ZnF1-6 (called full-length). The experiment can be described thus: nsRBNS (natural sequence RNA bind-n-seq); RBNS binding buffer (assumed for nsRBNS): 25 mM Tris pH 7.5, 150 mM KCl, 3 mM MgCl2, 0.01% Triton X-100, 500 ug/ml BSA, 20 U/ml SUPERase-In, 4 C; UNK is unkempt and MSI1 is Musashi-1; names of the RNAs are library labels; protein concentration not given here; high values mean tight binding.
Turning to B1, the binding signal was 2.05 enrichment R. Consider B2, for which the binding signal came to 0.682 enrichment R. On to B3, for which the binding signal worked out at 0.548 enrichment R. For B4 the value was 0.275 enrichment R. As to B5, the binding signal stood at 1.32 enrichment R. On to B6, for which the binding signal is 3.15 enrichment R. The molecule B7 displayed a binding signal of 0.314 enrichment R. Take B8: the binding signal amounted to 11.6 enrichment R. Molecule B9 yielded a binding signal of 0.584 enrichment R. B10 returned a binding signal of 0.665 enrichment R.

For B11, the binding signal turned out to be 10.6 enrichment R.

B12 displayed a binding signal of 2.42 enrichment R.

B13 displayed a binding signal of 0.381 enrichment R. In turn, B14 had a binding signal of 0.596 enrichment R.
